{
  "source": "PubChem BioAssay AID1159614",
  "about": "(National Center for Advancing Translational Sciences (NCATS), 2016)",
  "note": "Among all 45,000 compounds or so, about 65 (0.1%) were called active. The call rests on the fitted dose curve; in most records, active means well fitted activation curve with a large enough effect; inconclusive means small, poorly fitted or top-dose-only effect; inactive means no such curve, though single readings can be large or run the other way. The list shows a part of the results.",
  "data": [
    {"molecular_target": "Galactocerebrosidase (Homo sapiens) (UniProt P54803)", "sequence (P54803 whole entry, looked up)": "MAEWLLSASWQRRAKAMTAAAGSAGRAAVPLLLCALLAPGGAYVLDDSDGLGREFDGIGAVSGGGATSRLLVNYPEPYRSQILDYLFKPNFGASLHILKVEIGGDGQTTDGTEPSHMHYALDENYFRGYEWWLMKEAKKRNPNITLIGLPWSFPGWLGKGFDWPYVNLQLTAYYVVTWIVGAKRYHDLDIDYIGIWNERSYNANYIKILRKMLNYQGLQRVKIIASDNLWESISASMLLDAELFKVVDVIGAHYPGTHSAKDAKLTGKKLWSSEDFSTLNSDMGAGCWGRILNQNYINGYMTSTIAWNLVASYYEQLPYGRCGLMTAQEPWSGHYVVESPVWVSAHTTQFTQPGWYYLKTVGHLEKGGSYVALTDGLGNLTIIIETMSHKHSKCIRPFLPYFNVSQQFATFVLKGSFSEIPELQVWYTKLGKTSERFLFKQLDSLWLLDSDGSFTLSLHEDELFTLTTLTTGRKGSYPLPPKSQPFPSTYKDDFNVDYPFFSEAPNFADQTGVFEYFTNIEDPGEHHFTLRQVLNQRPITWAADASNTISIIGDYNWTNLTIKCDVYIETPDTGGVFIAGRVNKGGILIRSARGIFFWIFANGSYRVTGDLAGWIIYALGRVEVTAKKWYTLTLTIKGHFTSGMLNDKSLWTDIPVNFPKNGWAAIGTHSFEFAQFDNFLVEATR", "test": "A Novel Cell-Based Assay to Identify Small Molecules for B -Galactocerebrosidase; further: 0% is about no effect; nearly all actives have a fitted effect of over 65% in size", "conditions": "145M-Twi-hGALC-G270D cells (Twitcher mouse brain line with human GALC G270D), HMU-beta-Gal fluorescence, 48 h; series mostly up to 57.5 µM; activation: at the top concentration", "how_it_was_run": "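Live 145M-Twi cells (Twitcher mouse brain-derived, GALC-null) stably expressing human GALC-G270D, with a wild-type GALC line, were compound-treated. Residual GALC activity was then read as fluorescence from 0.1 mM final HMU-β-gal at pH 5.2; higher signal means activation.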", "values": [
      {"smiles": "Cc1ccc(-c2nnc(SCc3ccccc3)o2)cc1", "activation": "inactive: -24.2%"},
      {"smiles": "CCCNC(=O)CN1C(=O)COc2ccc(S(=O)(=O)N3CCCCCC3)cc21", "activation": "inactive: -12.7%"},
      {"smiles": "CCN(CC)C(=O)Cn1c(SCC(=O)Nc2ccc(F)cc2)nc2ccccc21", "activation": "inactive: -7.68%"},
      {"smiles": "CCc1ccccc1NC(=O)Cn1c(=O)n(C(C)C)c(=O)c2oc3ccccc3c21", "activation": "inactive: -8.7%"},
      {"smiles": "COc1ccccc1NC(=O)c1cc2c(-c3ccccc3)nn(-c3ccccc3)c2s1", "activation": "inactive: -4.18%"},
      {"smiles": "CCOc1ccccc1NC(=O)Cn1c(=O)nc(-c2ccccc2F)c2cc(Cl)ccc21", "activation": "inactive: -5.03%"},
      {"smiles": "COc1ccc(OCc2nc3ccccc3n2Cc2ccc(C(C)(C)C)cc2)cc1", "activation": "inactive: -11.3%"},
      {"smiles": "COc1cccc(NC(=O)C2CCCN(c3ncnc4onc(C)c34)C2)c1", "note": "(configuration not stated)", "activation": "inactive: -1.37%"},
      {"smiles": "O=C(Cc1ccc(-c2ccccc2)cc1)NCCS(=O)(=O)N1CCN(c2ccccc2F)CC1", "activation": "inactive: -1.56%"},
      {"smiles": "CCC1=C(C)CN(C(=O)NCCc2ccc(S(=O)(=O)NC(=O)NC3CCC(C)CC3)cc2)C1=O", "note": "(configuration not stated)", "activation": "inactive: -11.8%"},
      {"smiles": "CCCCCOc1ccc(/C=C/C(=O)Nc2sc3c(c2C(=O)OCC)CCC3)cc1OC", "activation": "inactive: -15.4%"},
      {"smiles": "CCCCOc1cccc(C2c3c(-c4cc(C)ccc4O)n[nH]c3C(=O)N2CCOC)c1", "note": "(configuration not stated)", "activation": "inactive: -16.3%"},
      {"smiles": "COc1ccc(NC(=O)CNC(=O)Cn2ccc3ccccc3c2=O)cc1OC", "activation": "inactive: -4.6%"},
      {"smiles": "CCc1ccc(NC(=O)c2cc(=O)c3ccc(C)c(C)c3o2)cc1", "activation": "inactive: -9.82%"},
      {"smiles": "O=C(Nc1ccccc1C(=O)N1CCCCC1)c1nsc2ccccc12", "activation": "inactive: -12.6%"},
      {"smiles": "CN1CCN(c2cc3c(nn2)Oc2ccccc2N3C)CC1", "activation": "inactive: -10.2% [at 23.8 µM]"},
      {"smiles": "Cc1cccc(N2CCN(CCCNc3ncnc4onc(-c5ccc(F)cc5)c34)CC2C)c1", "note": "(configuration not stated)", "activation": "inactive: -8.4%"},
      {"smiles": "O=C(Nc1ccc(F)c(F)c1)c1cc(S(=O)(=O)NC2CCCC2)ccc1F", "activation": "inactive: -34%"},
      {"smiles": "CCC(C)NC(=O)Cn1ccc2cc(S(=O)(=O)N3CCCCCC3)ccc21", "note": "(configuration not stated)", "activation": "inactive: 3.11%"},
      {"smiles": "CCc1ccc2oc(-c3cc(NC(=O)c4cccs4)ccc3Cl)nc2c1", "activation": "inactive: -6.99%"},
      {"smiles": "COc1cccc(C(=O)Nc2ccc3nc(SCCOc4ccccc4)sc3c2)c1", "activation": "inactive: -9.4%"},
      {"smiles": "O=C(CCNS(=O)(=O)c1ccc2c(c1)CCN2C(=O)C1CC1)Nc1ccc(OC(F)(F)F)cc1", "activation": "inactive: -33.9%"},
      {"smiles": "CCOC(=O)c1ccc(NC(=O)C2=C(C)C(=O)OC23CCN(C(C)C)CC3)cc1", "activation": "inactive: -12.9%"},
      {"smiles": "Cc1ccc2c(=O)cc(C(=O)Nc3sc4c(c3C(=O)NCc3cccnc3)CCCC4)oc2c1", "activation": "inactive: -18.9%"},
      {"smiles": "Cc1ccc(CCNC(=O)c2ccc3c(c2)N(Cc2cccc(F)c2)C(=O)c2ccccc2S3)cc1", "activation": "inactive: -12.7%"},
      {"smiles": "COc1cccc2cc(C(=O)Nc3ccc(C)cc3)c(=O)oc12", "activation": "inactive: -14.1%"},
      {"smiles": "CCOc1ccc(N(CC)C(=O)Cn2cnc3sc(C)c(S(=O)(=O)N4CCN(c5ncccn5)CC4)c3c2=O)cc1", "activation": "inactive: -4.53%"}
    ]}
  ]
}
